Data as given in PubChem BioAssay AID887 (National Center for Advancing Translational Sciences (NCATS), 2007).
Hit rate of the full screen: of about 74,000 compounds, about 1,100 (1.5%) were called active. This list was built around the results that the source calls inconclusive (neither active nor inactive); the mix of calls is not that of the screen. Calls come from the whole dose curve; as a rule, active = well fitted inhibition curve with a large enough effect; inconclusive = small, poorly fitted or top-dose-only effect; inactive = no such curve, though single readings can be large or run the other way. No potency is given beside an inconclusive call; the fits are too rough.
% is set by controls: 0 for no effect and ±100 for the full control effect; potency is the fitted concentration of half-maximal effect; tags give direction and shape of the fitted curve.
Note: nearly all actives have a fitted effect of over 55% in size.

What follows are molecules tested against Polyunsaturated fatty acid lipoxygenase ALOX15 (Homo sapiens) (UniProt P16050) (assay: qHTS Assay for Inhibitors of 15-hLO (15-human lipoxygenase)). Details: purified 15hLO-1, xylenol orange hydroperoxide absorbance; activity change, negative = inhibition: at 57.1 µM (top of the series) unless noted.
UniProt P16050, sequence (P16050 whole entry, looked up): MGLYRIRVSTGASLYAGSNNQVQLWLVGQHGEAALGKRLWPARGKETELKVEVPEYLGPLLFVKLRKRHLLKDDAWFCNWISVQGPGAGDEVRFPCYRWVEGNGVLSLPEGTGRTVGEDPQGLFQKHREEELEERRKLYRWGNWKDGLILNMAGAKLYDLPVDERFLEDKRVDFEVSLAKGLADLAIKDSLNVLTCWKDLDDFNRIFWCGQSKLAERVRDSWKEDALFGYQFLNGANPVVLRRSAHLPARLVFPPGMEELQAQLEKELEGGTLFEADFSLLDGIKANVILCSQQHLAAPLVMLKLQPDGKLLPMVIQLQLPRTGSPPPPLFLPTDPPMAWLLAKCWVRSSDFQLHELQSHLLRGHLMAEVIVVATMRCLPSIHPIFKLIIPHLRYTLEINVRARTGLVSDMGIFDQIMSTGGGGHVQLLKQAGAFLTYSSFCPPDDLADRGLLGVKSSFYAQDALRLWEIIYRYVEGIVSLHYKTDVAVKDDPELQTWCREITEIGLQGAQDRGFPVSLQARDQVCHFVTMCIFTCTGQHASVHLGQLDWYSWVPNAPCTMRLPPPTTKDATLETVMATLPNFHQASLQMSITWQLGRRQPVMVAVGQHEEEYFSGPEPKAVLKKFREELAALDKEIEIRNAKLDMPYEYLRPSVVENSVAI
Text: Assay Overview: NIH Molecular Libraries Screening Centers Network [MLSCN] NIH Chemical Genomics Center [NCGC] MLSCN Grant: MH081283-01A1 PI Name: Holman, T.R., University of California, Santa Cruz Human lipoxygenase 15hLO-1 is a member of the closely related lipoxygenase family of enzymes which catalyze the site-specific oxidation of arachidonic acid to various hormone precursor molecules and as such is a candidate for drug development in a variety of disease areas, such as cancer and inflammation. Inhibition of 15hLO-1 activity was screened by utilizing arachidonic acid as a substrate. The extent of hydroperoxide product formation was measured by a secondary chromogenic reaction in which xylenol orange (XO, Sigma-Aldrich, cat. number 39,818-7) reacts with the ferric ions produced from the reaction between the hydroperoxide and ferrous ions. The Fe(III)-XO complex is characterized with red-shifted absorbance at 560 nm. A purified preparation of human 15hLO-1 was supplied by Professor Ted Holman, University of California, Santa Cruz.
Assay Protocol: Buffer: 25 mM Hepes pH 7.5, 0.01% Triton X-100. Reagents/Controls: Buffer in columns 3 and 4 as negative control (no enzyme). Substrate solution: 50 uM arachidonic acid (Sigma-Aldrich, St. Louis, MO) final concentration dispensed throughout the plate. Enzyme: 40 nM 15hLO-1 final concentration in columns 1, 2, 5-48. Column 1 is neutral (100% activity). Column 2 contained pin-transferred titration of NDGA (nordihidroguaiaretic acid, Sigma-Aldrich, N 5023, top concentration 10 mM in DMSO, then 1:2 dilution in duplicate). (Dilution factor: 23 nL into 4 uL.) Chromogenic detection reagent (divalent iron/xylenol orange, Fe-XO): 200 uM xylenol orange plus 300 uM ferrous ammonium sulfate prepared freshly in 50 mM sulfuric acid. Assay Steps: Three uL of enzyme were dispensed to 1536-well Greiner black clear bottom plates. Compounds and controls (23 nL) were transferred via Kalypsys PinTool. The plates were incubated for 15 min at room temperature, and then 1 uL of substrate solution was added to start the reaction. After room temperature incubation for 6 minutes, 4 uL of Fe-XO solution was added to each well followed by a short spin (1000 rpm, 15 sec) and the plates were then incubated for 30 min. The absorbance at 405 and 573 nm were measured using ViewLux (Perkin-Elmer) High-throughput CCD imager and absorbance protocol settings. The 573-to-405 absorbance ratio was used to compute reaction progress.
For `O=C(c1cnn2ccccc12)N(Cc1ccco1)C1CCCC1`, the Potency was “inactive”. With `COc1ccc(S(=O)(=O)Nc2ccc(O)c3ccccc23)cc1` the Potency was inconclusive [inhibitor, full curve]. `Cc1cc(Nc2ccc(C)c(F)c2)n2ncnc2n1` was tested, and the Potency was inconclusive [inhibitor, single point]. `CCN1CCN(C(c2ccc(OC)c(OC)c2)c2nnnn2C(C)(C)C)CC1` (stereo not drawn) was tested, and the Potency was inconclusive [inhibitor, single point]. For `CCOC(=O)CCSc1nc2c(c(C(F)(F)F)c1C#N)CCC2`, the Potency was “inactive”. With `C=C1C(=O)OC2CC1C(OC(C)=O)CC(C)=CCCC(C)=CCC[C@@]2(C)O` (stereo partly drawn) the Potency was “inactive”. With `CCOC(=O)c1ccc2c(c1)N(CC(=O)N1CCCC1)C(=O)C(C)(C)O2` the Potency was inconclusive [inhibitor, single point]. `O=C(CC1SC2=NCCN2C1=O)Nc1ccc(Br)cc1` (stereo not drawn) was tested, and the Potency was “inactive”. `CC(C)OCCCn1c(-c2ccco2)nc2nc3ccccc3nc21` was tested, and the Potency was “inactive”. `CCCn1c(=O)c2[nH]c(-c3ccc(OCC(=O)NCCN)cc3)nc2n(CCC)c1=O` was tested, and the Potency was inconclusive [inhibitor, single point]. In the case of `CCc1ccc(N2CSC3=C(C#N)C(c4cccs4)CC(=O)N3C2)cc1` (stereo not drawn), the Potency is reported as inconclusive [inhibitor, full curve]. For `Cc1ccc(C2=C(Cl)C(=O)C(c3ccc(C)cc3)=C(Cl)C2=O)cc1`, the Potency was inconclusive [inhibitor, full curve]. `CCN1CCC2(CC1)C(C#N)=C(N)Oc1c2sc2nc(C)cc(C)c12` was tested, and the Potency was active: 25.1 µM. `COc1ccc(-n2c(N)c(C(=O)NCC3CCCO3)c3nc4ccccc4nc32)c(OC)c1` (stereo not drawn) was tested, and the Potency was inconclusive [inhibitor, single point]. With `Cn1cccc1C(=O)NC(=O)COC(=O)Cc1coc2ccc3ccccc3c12` the Potency was inconclusive [inhibitor, single point]. In the case of `CCOCCN1CCN(c2c(C)c(C)nc3cc(-c4cc(OC)cc(OC)c4)nn23)CC1`, the Potency is reported as inconclusive [inhibitor, partial curve]. With `N[C@H](C(=O)O)c1cccc(O)c1` the Potency was “inactive”. With `Oc1ccc(Br)cc1-c1nc2cnccn2c1NC1CCCC1` the Potency was inconclusive [inhibitor, partial curve]. For `COc1ccc2[nH]c3nc(SCc4nnc(-c5ccc(C)cc5)o4)nnc3c2c1`, the Potency was “inactive”. For `C=C(C)COc1ccc(-c2n[nH]c(C)c2-c2ccccc2)c(O)c1`, the Potency was inconclusive [inhibitor, single point]. With `O=S(=O)(c1cccc2c(Cl)cccc12)N1CCCNCC1` the Potency was “inactive”. `COc1ccc(Br)cc1S(=O)(=O)N1CCN=C1C` was tested, and the Potency was inconclusive [inhibitor, single point]. With `Cc1cc(Nc2ccccc2Br)n2nc(C)nc2n1` the Potency was “inactive”. In the case of `CCOc1ccc2nc(SCC(=O)N3CCCCCC3)c(C#N)cc2c1`, the Potency is reported as inconclusive [inhibitor, partial curve]. For `CCSc1cc(C2C(C(=O)OC)=C(C)NC3=C2C(=O)CCC3)c(C)o1` (stereo not drawn), the Potency was inconclusive [inhibitor, partial curve]. `COc1cccc(-c2nnc3n2N=C(C(C)(C)C)CS3)c1` was tested, and the Potency was inconclusive [inhibitor, single point]. With `Cc1ccc2[nH]c(=O)c(C(c3nnnn3C(C)(C)C)N(Cc3ccco3)CC3CCCO3)cc2c1` (stereo not drawn) the Potency was inconclusive [inhibitor, partial curve]. `Cc1noc(C)c1-c1cncnc1NCc1cccnc1` was tested, and the Potency was inconclusive [inhibitor, partial curve]. With `Cc1nnc(NC(=O)CSc2cn(CCNC(=O)c3ccccc3)c3ccccc23)s1` the Potency was inconclusive [inhibitor, single point]. With `O=C(OCc1nnc(-c2ccc(Cl)cc2)o1)c1ccc(=O)n(Cc2ccccc2)n1` the Potency was active: 20 µM. For `Cc1ccc(S(=O)(=O)c2c(N)n(CC3CCOC3)c3nc4ccccc4nc23)cc1` (stereo not drawn), the Potency was inconclusive [inhibitor, single point]. With `CCCc1c(OCCCOc2ccc(OCC(=O)O)cc2)ccc(C(C)=O)c1O` the Potency was “inactive”. In the case of `COc1cccc(Oc2cn[nH]c2-c2ccc(OC)cc2O)c1`, the Potency is reported as inconclusive [inhibitor, partial curve]. `O=C(C1CCCN1S(=O)(=O)c1cccc2cccnc12)N1CCN(c2ccccc2)CC1` (stereo not drawn) was tested, and the Potency was inconclusive [inhibitor, single point]. With `Cc1cccc(-n2nnnc2SC(C)C(=O)NCCC2=CCCCC2)c1` (stereo not drawn) the Potency was inconclusive [inhibitor, single point]. For `O=C1C(O)=C(O)C(=O)C(O)=C1O`, the Potency was inconclusive [inhibitor, full curve]. In the case of `CCn1c(SCC(=O)Nc2ccc3c(c2)c2ccccc2n3CC)nnc1-c1ccco1`, the Potency is reported as inconclusive [inhibitor, partial curve]. `Nc1c(S(=O)(=O)c2cccs2)c2nc3ccccc3nc2n1Cc1ccc2c(c1)OCO2` was tested, and the Potency was inconclusive [inhibitor, full curve, poor fit]. `O=C1CC(Nc2ccc(N3CCOCC3)cc2)C(=O)N1c1ccccc1F` (stereo not drawn) was tested, and the Potency was active: 20 µM. With `CCSC(N)=Nc1ccc(C(F)(F)F)cc1` the Potency was inconclusive [inhibitor, single point]. In the case of `Cc1ccc2c(c1C)NC(C)CC2C` (stereo not drawn), the Potency is reported as inconclusive [inhibitor, partial curve, poor fit]. `C=CCn1c(SCc2ccc(C#N)cc2)nnc1-c1cccc(Cl)c1` was tested, and the Potency was inconclusive [inhibitor, single point]. For `Cn1cccc1C(=S)N=P(C1CCCCC1)(N1CCOCC1)N1CCOCC1`, the Potency was inconclusive [inhibitor, partial curve, poor fit]. `O=C(Nc1nc(-c2ccccc2)cs1)c1cccs1` was tested, and the Potency was active: 12.6 µM. In the case of `CC(C)Oc1ccc(C(=O)Nc2ccc(N3CCCC3)cc2)cc1`, the Potency is reported as active: 1.26 µM. For `O=C(O)c1cc(=O)[nH]c(=S)[nH]1`, the activity change, negative = inhibition was inactive: -1.03% [at 11.4 µM]. For `NS(=O)(=O)O`, the Potency was “inactive”. With `CC[C@@H]1Cc2cc(O)ccc2C2=C1c1ccc(O)cc1C[C@H]2CC` the Potency was active: 10 µM. With `CC1(C)Cc2c(C#N)c(N)sc(=S)c2CS1` the Potency was inconclusive [inhibitor, partial curve]. For `CCCCOC(=O)Cn1c(=N)n(CCC)c2ccccc21`, the Potency was inconclusive [inhibitor, single point]. In the case of `c1ccc(-c2nn3c(Cn4nnc5ccccc54)nnc3s2)cc1`, the Potency is reported as inconclusive [inhibitor, partial curve]. `CCOC(=O)CSc1ccc2nnc(-c3cccs3)n2n1` was tested, and the Potency was inconclusive [inhibitor, single point]. For `Cc1ccc(-n2c(N)c(-c3nc4ccccc4n3C)sc2=S)cc1`, the Potency was active: 3.16 µM. In the case of `Cc1nc(NCc2ccccc2)c2nc(-c3ccccc3)n(CCN3CCCCC3)c2n1`, the Potency is reported as active: 20 µM. `CN(C)c1cccc(NC(=O)CCc2ccccc2)c1` was tested, and the Potency was inconclusive [inhibitor, single point]. With `CCOC(=O)C1CCN(CC(=O)c2c(C)[nH]c3ccccc23)CC1` the Potency was inconclusive [inhibitor, partial curve]. `O=C(Cn1nnc2c(cnn2-c2ccc(F)cc2)c1=O)OC1CCCCC1` was tested, and the Potency was “inactive”. `CN(Cc1ccco1)c1cc(-c2ccoc2)ncn1` was tested, and the Potency was inconclusive [inhibitor, partial curve]. With `CCOC(=O)COc1cccc2c(=O)n(CC(=O)N3CCc4ccccc43)ccc12` the Potency was “inactive”. `Cc1cccc(CNc2nc(-c3ccc(C(=O)N(C)C)cc3)nc3ccccc23)c1` was tested, and the Potency was inconclusive [inhibitor, single point]. With `O=C(COc1cnc2ccccc2n1)NCCC1=CCCCC1` the Potency was inconclusive [inhibitor, partial curve]. In the case of `CC1(C)Cc2ccccc2-c2n[nH]c(=S)n21`, the Potency is reported as inconclusive [inhibitor, partial curve]. With `CSc1nc(N)c(C#N)c(-c2ccc(Cl)cc2)c1C#N` the Potency was inconclusive [inhibitor, partial curve]. With `COC(=O)c1ccc(CCc2cc(O)ccc2O)cc1` the Potency was active: 1.58 µM. In the case of `CCOC(=O)c1[nH]c(C)c(C(=O)N2CCOCC2)c1C`, the Potency is reported as inconclusive [inhibitor, single point]. With `COc1ccc2nc3cc(Cl)ccc3c(Nc3ccc(O)c(CN4CCN(C)CC4)c3)c2c1` the activity change, negative = inhibition was inactive: 9.13% [at 11.4 µM]. With `CC(=O)Nc1ccc(S(=O)(=O)c2c(N)n(CCN3CCOCC3)c3nc4ccccc4nc23)cc1` the Potency was inconclusive [inhibitor, single point]. `COc1ccc(CCNC(=O)c2c[nH]c3ccccc3c2=O)cc1OC` was tested, and the Potency was “inactive”. `CCOc1ccc(S(=O)(=O)Nc2cccc(C(=O)N3CCN(c4ccc(OC)cc4)CC3)c2)cc1` was tested, and the Potency was inconclusive [inhibitor, single point]. `COc1ccc(C(=O)N2CCC3(CCCN(c4ccc(-c5ccccc5)cc4)C3)CC2)cc1` was tested, and the Potency was “inactive”. `COc1cc(-c2nnc(SCc3cccnc3)n2C)cc(OC)c1O` was tested, and the Potency was inconclusive [inhibitor, single point]. For `CCCCCn1c(-c2ccco2)nc2nc3ccccc3nc21`, the Potency was inconclusive [inhibitor, single point]. With `COc1ccc(OC)c(NC(=O)Nc2ccccc2C)c1` the Potency was “inactive”.
